Assay results as given in the supplement of paper PMC8792480.
Counter-ions that a name gives are not always drawn. This is one part of the list. Single values are uncertain, as repeats are few or missing.

Tested on: A549
Assay: cell-surface PD-L1 MFI ratio relative to radiation alone (isotype-subtracted); higher = higher PD-L1 surface expression
Details: inducer: radiation 8 Gy; 10 µM; 24 h
Protocol: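 A549 and H460 NSCLC cells were treated with each library drug at 10 uM, then with radiation (8 Gy) or cisplatin (4 uM), and incubated for 24 h. Cell-surface PD-L1 was measured by flow cytometry as an MFI ratio: (MFI drug+inducer - MFI isotype)/(MFI inducer alone - MFI isotype). Hits were defined as ratio < 0.75.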
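Further: surface PD-L1 on NSCLC cells stained with a PE-labelled anti-human PD-L1 antibody before flow cytometry, screening a library of roughly two hundred mostly kinase and epigenetic inhibitors.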

Row | SMILES | cell-surface PD-L1 MFI ratio
1 | COc1cc(Br)c(Nc2nc(-c3c(C)nc4ncccn34)cs2)c(Br)c1 | active: 0.733
2 | O=c1cc(N2CCOCC2)oc2c(-c3cccc4c3sc3ccccc34)cccc12 | active: 0.74
3 | CC(C)C[C@H](NC(=O)[C@H](Cc1ccccc1)NC(=O)c1cnccn1)B(O)O [Bortezomib (PS-341)] | inactive: 1.1
4 | CC(=O)Oc1ccccc1C(=O)O [Aspirin] | active: 0.654
5 | COCC[n+]1c2c(n(Cc3cnccn3)c1C)C(=O)c1ccccc1C2=O [YM155 (Sepantronium Bromide)] | inactive: 0.97
6 | CCCc1cc(C)[nH]c(=O)c1CNC(=O)c1cc(-c2ccc(N3CCN(C(C)C)CC3)nc2)cc2c1cnn2C(C)C | inactive: 1.16
7 | COc1ncc(-c2ccc3nccc(-c4ccnnc4)c3c2)cc1NS(=O)(=O)c1ccc(F)cc1F | inactive: 1.13
8 | Clc1ccc(NN=C(c2ccccc2)c2ccccn2)nc1 | inactive: 1.55
9 | c1ccc(-c2nn3c(c2-c2ccnc4cc(OCCN5CCOCC5)ccc24)CCC3)nc1 | inactive: 1.27
10 | CC(C)(C)Cn1c(N)nc2ccc(-c3[nH]c(C(C)(C)C)nc3-c3ccc(F)cc3)nc21 | inactive: 1.19
11 | CN(C)Cc1cccc(N=C(c2ccccc2)c2c(O)[nH]c3cc(C(=O)N(C)C)ccc23)c1 | inactive: 1.38
12 | CC1(C)CCC(c2ccc(Cl)cc2)=C(CN2CCN(c3ccc(C(=O)NS(=O)(=O)c4ccc(N[C@H](CCN5CCOCC5)CSc5ccccc5)c(S(=O)(=O)C(F)(F)F)c4)cc3)CC2)C1 [Navitoclax (ABT-263)] | inactive: 2.09
13 | Cc1ccc(C(=O)N(CCCN)[C@@H](c2nc3cc(Cl)ccc3c(=O)n2Cc2ccccc2)C(C)C)cc1 | inactive: 1.11
14 | O=C(O)C(Cc1ccccc1[N+](=O)[O-])=NNc1nc(-c2ccc(Cl)c(Cl)c2)cs1 (mixture of isomers) | inactive: 1.49
15 | CCCCCCCCc1ccc(CCC(N)(CO)CO)cc1 [Fingolimod] | inactive: 0.876
16 | COCCOc1nc(-c2ccc(Cl)c(Cl)c2)n(-c2ccc(NC(=O)CCl)cc2)n1 [MI-2 (MALT1 inhibitor)] | inactive: 1.1
17 | O=S(=O)(c1cccc2c(I)cccc12)N1CCCNCC1 | inactive: 0.776
18 | COc1ccc(C2CC(c3ccccc3)=NN2c2ccc(S(N)(=O)=O)cc2)cc1 (stereo not given) | inactive: 0.84
19 | CN1c2ccccc2C(=O)Nc2cnc(Nc3ccc(N4CCC(O)CC4)cc3)nc21 | active: 0.682
20 | FC(F)(F)c1ccc(CNc2ccc(Cc3c[nH]c4ncc(Cl)cc34)cn2)cn1 [Pexidartinib (PLX3397)] | inactive: 0.822

Row | SMILES | cell-surface PD-L1 MFI ratio
21 | N[C@@H]1CCCN(c2c(/C=C3\SC(=O)NC3=O)cccc2-c2ccccc2)C1 | inactive: 1.1
22 | Cc1cn(CCN2CCN(c3ccccc3-c3cc(C#N)cc(C(=O)NCCCN4CCCC4)c3)CC2)c2ccccc12 | inactive: 1.07
23 | Cc1cc(O)c(-c2ccc([C@@H](C)CN)cc2)c2c1[nH]c(=O)c1sccc12 [OTS514 hydrochloride] | inactive: 1.24
24 | CCS(=O)(=O)N1CC(CC#N)(n2cc(-c3ncnc4[nH]ccc34)cn2)C1 | inactive: 0.79
25 | COc1ccc(-c2nc(-c3cc(C(F)(F)F)cc(C(F)(F)F)c3)n(Cc3ccc(C(N)=O)cc3)c2-c2ccc(OC)cc2)cc1 [Apoptozole] | inactive: 0.781
26 | Nc1ccc2ncnc(NCCc3ccc(Oc4ccccc4)cc3)c2c1 | inactive: 0.901
27 | CN(C)C(=N)NC(=N)N [Metformin] | inactive: 1.12
28 | Nc1nc(F)nc2c1ncn2[C@@H]1O[C@H](CO)[C@@H](O)[C@@H]1O [Fludarabine] | inactive: 0.861
29 | C=CC(=O)N1CCC[C@@H](n2nc(-c3ccc(Oc4ccccc4)cc3)c3c(N)ncnc32)C1 [Ibrutinib] | inactive: 1.22
30 | CC(C)(C)NC(=O)c1cncn1C1CCN(c2ccc(-c3nnc(C(F)(F)F)o3)cn2)CC1 | inactive: 0.787
31 | CC(=O)O[C@H]1C(=O)[C@@]2(C)[C@H]([C@H](OC(=O)c3ccccc3)[C@]3(O)C[C@H](OC(=O)[C@H](O)[C@@H](NC(=O)c4ccccc4)c4ccccc4)C(C)=C1C3(C)C)[C@]1(OC(C)=O)CO[C@@H]1C[C@@H]2O [Paclitaxel] | active: 0.655
32 | O=C(Nc1cccc2cccnc12)c1ccc(N2C(=O)[C@@H]3[C@H](C2=O)[C@@H]2C=C[C@H]3C2)cc1 [IWR-1-endo] | inactive: 1.08
33 | CS(=O)(=O)CCNCc1ccc(-c2ccc3ncnc(Nc4ccc(OCc5cccc(F)c5)c(Cl)c4)c3c2)o1 | inactive: 1.35
34 | CC[C@@H](N)CNc1ccnc(-c2cc(-c3cnn(C)c3)ccc2O)n1 | inactive: 1.67
35 | O=C(N/N=C/c1ccc([N+](=O)[O-])o1)c1ccc(O)cc1 [Nifuroxazide] | inactive: 0.809
36 | Cc1ccc(-c2cc(C(F)(F)F)nn2-c2ccc(S(N)(=O)=O)cc2)cc1 [Celecoxib] | inactive: 1.32
37 | CC(C)N1CCN(Cc2cnc(-c3cc(-c4cccc5[nH]ccc45)cc4[nH]ncc34)o2)CC1 | inactive: 0.794
38 | C[C@]1(c2nc3c(C(N)=O)cccc3[nH]2)CCCN1 [Veliparib (ABT-888)] | active: 0.61
39 | CC(ONC(=O)c1cc(C(F)(F)F)cc(C(F)(F)F)c1)C(=O)Nc1ccc(Cl)cc1 (stereo not given) | inactive: 0.803
40 | NC1(c2ccc(-c3nc4ccn5c(=O)[nH]nc5c4cc3-c3ccccc3)cc2)CCC1 | inactive: 1.03
